# Measurements reported in the supplement of paper PMC10338343.
# ± gives the standard deviation. The full ranking holds about 5,500 sequences; the median of “pre-steady-state target cleavage rate” is about 0.1, and the highest 2% start at about 0.64. Only a part is listed here, and it is no random draw.
# System: MIWI (PIWIL1) piRISC loaded with piRNA #2 (30 nt)
# Test: pre-steady-state target cleavage rate (min^-1); MIWI and MILI are mouse PIWI proteins and EfPiwi is from a freshwater sponge; tags in brackets are library labels; higher = faster piRNA-guided slicing of the target
# Conditions: guide: piRNA #2 5'p-UUAGGUAACCCAGUAGAUCCAGAGGAAUUC; auxiliary factor: 500 nM mouse GTSF1
# Outline: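 A transcribed, DNA-blocked target RNA library […] was incubated at 33 °C for 0–8 or 0–960 min with 1 nM active affinity-purified piRISC carrying one synthetic guide, in HEPES–potassium acetate buffer with or without 500 nM GTSF1 partner protein. Uncleaved targets were then sequenced and normalised to depth and to weakly complementary targets. Data from three trials were pooled, with k3 capped at 0.0001 min^-1, and a burst-and-steady-state fit yielded the pre-steady-state cleavage rate.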
row,Sequence,pre-steady-state target cleavage rate
1,CUUAACCUCAGGAUCUACUGGGUUACCAAA,0.249 ± 0.051
2,CUUAAGGAGUGGAAUCUACUGGGUUACCUAA,0.00975 ± 0.0066
3,CUUAUCCUCUGGUUCUACUGGGAUACCUAA,0.0766 ± 0.021
4,CUUAAGCUCUGGAUCUAAUGGGUUACCUAA,0.0291 ± 0.0077
5,CUUAAGGUCUGGAUCUACUGGGUUAGCCUAA,0.185 ± 0.025
6,CUUAUCCUCUGGAUCUACUGGGCUUACCUAA,0.0552 ± 0.014
7,CAAUUCCUCUGGAUCUACUGGGUCUACCUAA,0.501 ± 0.048
8,CAAAUGCUCUGGAUCUACUGGGUUACCUAA,0.176 ± 0.032
9,CUUAAGCUCUGGACUCUACUGGGUUACCUAA,0.0269 ± 0.0093
10,GAAUUCCACAGGAUCUACUGGGUUACCUAA,0.408 ± 0.05
11,CUUAUCCUCUGGAACUACUGGGUUACCAAA,0.143 ± 0.021
12,GAAUUGCUGUGGAUCUACUGGGUUACCUAA,0.253 ± 0.06
13,CUUUUCCUCUGGAUCUACUCGGUUUCCUAA,0.0499 ± 0.018
14,CUUAAGGAGUGGAUCUACUGGGUUACGCUAA,0.0985 ± 0.021
15,CUUAAGGUCUGGAUCAACAGGGUUACCUAA,0.0476 ± 0.0078
16,CAAUUCCUGUGGAUCUACUGGCUUACCUAA,0.0619 ± 0.017
17,CUUAAGGACUGGAUCUACUGGGUUACCAUA,0.0504 ± 0.037
18,CUUAAGCUCUGGAUCUACUGGGGUUACCUAA,0.0113 ± 0.0037
19,CUUAAGGAGUGGAUCUACUGGGUUUGCUAA,0.00454 ± 0.0037
20,CUAUUCCUCUGGAUCAUACUGGGUUACCUAA,0.016 ± 0.0067

row,Sequence,pre-steady-state target cleavage rate
1,CUUAAGGUCUGGAUCCUACUGGGUUACCUAA,0.041 ± 0.0085
2,GAAGUUCCUCUGGAUCUACUGGGUUACCUAA,0.103 ± 0.038
3,CUUAAGGAGUGGAUCAACUGGGUUACCUUA,0.00666 ± 0.0034
4,CAAUUCCUCUGGCUCUACUGGGUUACCUAA,0.66 ± 0.04
5,CUUAAGGACUGGAUCUACUGGGUUACUCUAA,0.206 ± 0.071
6,CAAUUCCUCUGGAUCUACUGGGUUACCUAU [g2:g29:cont:t1U],0.502 ± 0.057
7,GAAUUCCUACUGGAUCUACUGGGUUACCUAA,0.463 ± 0.05
8,CUUAAGGAGAGGAUCUACUGGGUCUACCUAA,0.00756 ± 0.0024
9,CUAUUCCUCUGGAUCAACUCGGUUACCUAA,0.103 ± 0.02
10,GAAUUCCUCUCGGAUCUACUGGGUUACCUAA,0.442 ± 0.048
11,CAUUUCCUCUGGAUCUACUGGGUAACCUAA,0.259 ± 0.043
12,CUUAAGGUCAGGAUCUACUGGGUUUCCUAA,0.0082 ± 0.0039
13,CUUUUCCUCUGGAUCUACUGGGUUAUCUAA,0.477 ± 0.057
14,CUUAUCCUCUGGAUCUAUUGGGUUACCUAA,0.252 ± 0.042
15,CUUAAGGUCUGGAACUACUGGGUUACGUAA,0.318 ± 0.063
16,CUUAAGCUCAGGAUCUACUGGGUUACCUUA,0.25 ± 0.034
17,CUAAUCCUGUGGAUCUACUGGGUUACCUAA,0.427 ± 0.055
18,CAUUACCUCUGGAUCUACUGGGUUACCUAA,0.404 ± 0.051
19,CUUAAGGUCUGGAUCUACAGGGUUACCAAA,0.132 ± 0.017
